Assay results reported in the supplement of paper PMC3334620.
The full ranking holds about 33,000 sequences; the median of “E-score (-0.5 to 0.5)” is about -0.043, and the highest 2% start at about 0.37. The list shows a part of the results.

What follows are sequences tested against T1, Upc2 (UniProt Q12151) (assay: PBM E-score (8-mer binding enrichment) (E-score (-0.5 to 0.5)); higher = stronger / more preferred TF binding; most listed sequences are background and not binding sites). Conditions: protein concentration: 200 nM; construct: GST-full length.
T1 sequence: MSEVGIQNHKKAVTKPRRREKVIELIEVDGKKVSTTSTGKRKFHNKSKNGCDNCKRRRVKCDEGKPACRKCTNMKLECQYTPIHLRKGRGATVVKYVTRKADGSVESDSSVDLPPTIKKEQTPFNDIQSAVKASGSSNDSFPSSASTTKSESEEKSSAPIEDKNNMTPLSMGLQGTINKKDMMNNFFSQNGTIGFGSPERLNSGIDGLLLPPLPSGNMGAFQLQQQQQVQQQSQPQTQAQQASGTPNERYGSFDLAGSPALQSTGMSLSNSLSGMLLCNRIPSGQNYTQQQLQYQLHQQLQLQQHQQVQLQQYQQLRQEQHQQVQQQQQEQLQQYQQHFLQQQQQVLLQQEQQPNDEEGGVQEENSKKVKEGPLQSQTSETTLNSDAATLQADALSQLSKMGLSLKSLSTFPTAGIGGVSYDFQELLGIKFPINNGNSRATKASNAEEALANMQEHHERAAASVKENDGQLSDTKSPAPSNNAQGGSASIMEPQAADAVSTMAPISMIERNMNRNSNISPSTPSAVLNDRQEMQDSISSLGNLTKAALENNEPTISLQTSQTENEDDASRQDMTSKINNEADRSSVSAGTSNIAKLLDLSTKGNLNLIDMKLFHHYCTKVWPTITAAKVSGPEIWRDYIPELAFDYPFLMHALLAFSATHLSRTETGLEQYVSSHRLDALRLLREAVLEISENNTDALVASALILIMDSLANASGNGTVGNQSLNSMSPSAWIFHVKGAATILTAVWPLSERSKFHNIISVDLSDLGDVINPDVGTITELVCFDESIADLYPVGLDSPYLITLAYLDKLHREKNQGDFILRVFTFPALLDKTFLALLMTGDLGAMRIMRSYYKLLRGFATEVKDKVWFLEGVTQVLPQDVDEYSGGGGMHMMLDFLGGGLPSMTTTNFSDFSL
Summary of the method: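 Yeast transcription factors carrying a GST tag, as full-length proteins or DNA-binding domains, were produced by PURExpress in vitro transcription/translation. About 100-200 nM protein was applied to universal all-10-mer Agilent arrays, double-stranded by primer extension on fresh or once-stripped slides. Bound protein was detected with fluorescent anti-GST, and scans were normalised with masliner. The Universal PBM Analysis Suite gave each ungapped eight-base word, pooled with its reverse complement, an E-score, a modified Wilcoxon-Mann-Whitney statistic.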

Row | Sequence | PBM E-score
1 | ACAGCGGG | -0.172
2 | CCCATACA | -0.22
3 | ACCTAAAC | 0.324
4 | ATGCCTGG | -0.189
5 | CACTATGG | -0.00111
6 | CTTTACGC | 0.332
7 | CAATCCAG | -0.342
8 | AGCGTCAT | 0.0529
9 | CAAAGCGG | -0.19
10 | AGAGTGTG | 0.0657
11 | ACAGTTAG | -0.167
12 | ACACATAG | -0.244
13 | GACTCGTA | 0.436
14 | GAGCCTAA | -0.0807
15 | GAAGGCGC | -0.132
16 | ATAATTCA | 0.03
17 | CGTTAACG | 0.422
18 | CAAGAACC | 0.0717
19 | TGCCGTAA | 0.31
20 | TCTGACAA | -0.11
21 | CCGTTCCA | 0.283
22 | CGCAACTA | 0.00729

Row | Sequence | PBM E-score
23 | AGCTATTA | -0.058
24 | ATCGAGAT | -0.0275
25 | GCACTCCC | -0.207
26 | CGCCTTGA | -0.133
27 | TCGGTCAA | 0.211
28 | CGTCGCTA | 0.249
29 | AAAGACCG | -0.126
30 | GAAACTGA | -0.152
31 | CCGACCTA | -0.0158
32 | AATTTAGC | 0.0533
33 | CACTACAA | 0.152
34 | ACGCGACG | 0.265
35 | AAAGTTCT | -0.0524
36 | ACGGCGAT | 0.316
37 | ACATAAGT | -0.141
38 | GATTAAGC | 0.012
39 | AAACTTCA | 0.156
40 | CTCCCCGA | -0.0281
41 | CAAATCTG | -0.272
42 | CAGTGTAC | 0.184
43 | TAACAATA | 0.103
44 | AATCAATG | 0.0849

Row | Sequence | PBM E-score
45 | GGTGCTAA | -0.00472
46 | GTGTGAGA | -0.0873
47 | AATCTACG | 0.0794
48 | CACAACTA | 0.0858
49 | ATGGTTGA | -0.284
50 | ACGGCCAC | 0.0967
51 | CGCGTGGC | -0.0684
52 | AATTCAGG | 0.00127
53 | CTCACAAA | -0.182
54 | GAGAGAAC | -0.133
55 | ACTGGAAT | -0.283
56 | CGCAGGGC | 0.0356
57 | AATGTTAG | -0.0657
58 | GCTCCTGA | -0.101
59 | CACAAGCG | 0.0708
60 | CGGTTGCC | -0.0446
61 | CGGAATAG | -0.0866
62 | TATCTTCA | 0.0238
63 | CGTAACGA | 0.374
64 | CGTTCGCA | 0.274
65 | CCGGGTAG | -0.0707
66 | ACTGCGGC | 0.0227

Row | Sequence | PBM E-score
67 | CGCACCCC | -0.136
68 | TTAGCCAA | -0.155
69 | TAACAGAA | -0.0236
70 | TAAGTGTA | 0.201
71 | GCTGGGAA | -0.00216
72 | ATCTCTCA | -0.156
73 | TAAGGATA | -0.111
74 | ATTATTCA | -0.112
75 | CCTTTATC | -0.132
76 | CTCCCAGC | -0.242
77 | AGACTACG | -0.0435
78 | GAGGCTCA | -0.195
79 | GCATACAC | 0.0673
80 | AAATATAG | 0.0319
81 | CATTTTGA | -0.118
82 | CGACCCCG | -0.14
83 | CGCTTAAA | 0.28
84 | AGCGACAC | 0.166
85 | AACTGTCG | 0.125
86 | AATCCTCC | -0.143
